Results on 56 compounds are retold here after PubChem BioAssay AID463173 (ICCB-Longwood Screening Facility, Harvard Medical School, 2010).

Screen size: about 52,000 compounds; about 4,300 (8.3%) were called active. Rule as the data show it: active = survival mostly below about 52% (no sharp cut-off); inactive = mostly above about 56%. Some of the results follow.

The test system of the test is DeltatarO mutant. Kind of test: S. aureus survival, RN4220 and DeltatarO strains – OD600, teichoic acid synthesis inhibitors, primary screen (AID 463173). The settings on record: S. aureus RN4220 wild type/DeltatarO growth, OD600, 18 h, active compounds read low, screened at 18.75 µg/mL (by protocol).
On to `Cc1cc(F)ccc1NC(=O)CCS(=O)(=O)c1ccc2c(c1)CC(C)N2C(=O)C1CC1` (stereo unspecified), for which the survival is inactive: 81%.

Turning to `COc1ccccc1CNC(=O)CCn1nc(C)c2c(C)n(-c3ccccc3)nc2c1=O`, the survival is inactive: 71%.

Consider `O=C(c1ccccc1NS(=O)(=O)c1cccc2nsnc12)N1CCOCC1`, for which the survival is inactive: 80%.

Take `Brc1ccc(-c2nc3ccccn3c2Nc2ccc3c(c2)OCCO3)o1`: the survival is inactive: 85%.

With `O=S(=O)(c1ccccc1)c1nnn2c1nc(NCc1ccc(F)cc1)c1sccc12`, the survival is inactive: 92%.

With `Cc1oc(-c2ccc(Cl)cc2)nc1CS(=O)CC(=O)N1CCN(c2cccc(C(F)(F)F)c2)CC1` (stereo unspecified), the survival was inactive: 99%.

As for `COc1cccc(N2CCN(c3ncnc4c3nc3n4CCCCC3)CC2)c1`, the survival was active: 20%.

On to `CCOc1no[n+]([O-])c1-c1ccccc1`, for which the survival was inactive: 90%.

In the case of `O=C(NC1CCCCC1)c1ccc(Cn2c(SCc3ccc(F)cc3)nc3cccnc32)cc1`, the survival was active: 32%.

For `Cc1ccc2c(c1)-c1onc(C(=O)N3CCN(c4ccc(Cl)cc4)CC3)c1CO2`, the survival was inactive: 63%.

With `CCOC(=O)N1CCN(Cc2nc3cc(NC(=O)c4ccccc4[N+](=O)[O-])ccc3n2C(C)C)CC1`, the survival was inactive: 91%.

As to `Cc1ccc(-n2c3nc(=O)[nH]c(=O)c-3cc3c(C)nn(-c4ccccc4)c32)cc1Cl`, the survival is inactive: 85%.

For the compound `Cc1cccc(C)c1NC(=O)NCCc1c[nH]c2ccccc12`, the survival was inactive: 78%.

With `CCCNC(=O)C1CCC(Cn2c(=O)c3sccc3n(Cc3ccccc3F)c2=O)CC1` (stereo unspecified), the survival was inactive: 80%.

Regarding `COCCCn1c(=N)c(C(=O)NCc2ccco2)cc2c(=O)n3ccccc3nc21`, the survival is inactive: 152%.

Consider `CCCN(CCC)CC(O)Cn1cc(/C=C/C(=O)c2ccc(C)cc2)c2ccccc21` (stereo unspecified), for which the survival was active: -2%.

For `COc1ccc(NC(=O)c2cc(S(=O)(=O)N3CCCCCC3)cn2C)c(OC)c1`, the survival is inactive: 80%.

Turning to `CC(C(=O)NCc1ccc(Cl)cc1)n1ccc2cc(S(=O)(=O)N3CCCCCC3)ccc21` (stereo unspecified), the survival was inactive: 99%.

`CCOC(=O)c1c(S(=O)(=O)N2CCC(C(=O)NCc3ccc(F)cc3)CC2)c(C)n(C)c1C`: the survival is inactive: 79%.

As to `CN(C)S(=O)(=O)c1ccc2c(c1)N(CC(=O)Nc1ccc(OC(F)(F)F)cc1)C(=O)CS2`, the survival was inactive: 78%.

With `C=Cc1ccc(Cn2c(C(=O)O)c(CNC3CCCC3)c3ccc(C)cc32)cc1`, the survival is inactive: 89%.

Turning to `Cc1cccc(N(C)C(=O)CCS(=O)(=O)c2ccc3c(c2)oc(=O)n3C)c1`, the survival was inactive: 99%.

Regarding `COc1ccc(OCC(=O)NC2CC(=O)N(c3cccc(OC)c3)C2)cc1` (stereo unspecified), the survival was active: 0%.

`O=C(/C=C/c1ccco1)Nc1cccc(-c2nc3ccccc3o2)c1`: the survival was inactive: 76%.

Consider `Cc1ccccc1-c1noc(-c2cccnc2NCc2ccco2)n1`, for which the survival is inactive: 52%.

Turning to `CCOC(=O)c1c(C)[nH]c(C)c1S(=O)(=O)N1CCC(C(=O)N2CCN(c3cccc(Cl)c3)CC2)CC1`, the survival was inactive: 94%.

On to `Clc1ccc2[nH]c3nc4ccccc4nc3c2c1`, for which the survival is inactive: 78%.

Regarding `CC(=O)N1CCc2cc(C(=O)C[n+]3ccccc3)ccc21`, the survival was inactive: 91%.

Turning to `O=C(NCc1ccccc1Cl)C1CCCN(S(=O)(=O)c2cccc3nsnc23)C1` (stereo unspecified), the survival is inactive: 91%.

Turning to `COc1ccc(OC)c(CNC(=O)c2c3c(nc4ccccc24)C(=O)N(C2CCCCC2)C3)c1`, the survival is inactive: 93%.

In the case of `O=C1c2cccc3c(N4CCCC4)ccc(c23)C(=O)N1c1ccccc1`, the survival is inactive: 96%.

In the case of `CCC(=O)N1CCc2cc(Br)cc(S(=O)(=O)N3CCN(c4ccc(C)cc4)C(C)C3)c21` (stereo unspecified), the survival was inactive: 140%.

Turning to `CCOC(=O)c1c(C)[nH]c(C)c1S(=O)(=O)N1CCC(C(=O)N2CCN(c3ccccc3)CC2)CC1`, the survival is inactive: 90%.

Take `COc1ccc(CNC(=O)c2cc(-c3ccc(C)cc3)nc3n[nH]c(-c4ccc(Br)cc4)c23)cc1`: the survival was inactive: 74%.

As to `NS(=O)(=O)c1ccc(NC(=O)CN2C(=O)COc3ccc(Cl)cc32)cc1`, the survival was inactive: 71%.

In the case of `O=C(O)c1ccc2nc(-c3cc4cccc(O)c4oc3=O)[nH]c2c1`, the survival is inactive: 75%.

For `Cc1ccc(C)c(S(=O)(=O)c2nnn3c2nc(NC(C)C)c2sccc23)c1`, the survival is inactive: 40%.

As to `CCOc1ccc(Nc2ncnc3c2nc2n3CCCC2)cc1`, the survival is inactive: 83%.

For the compound `CCOC(=O)c1c(C)[nH]c(C)c1S(=O)(=O)N1CCCC(C(=O)Nc2ccc(C)cn2)C1` (stereo unspecified), the survival is inactive: 74%.

As to `CCc1ccccc1Nc1nn2c(=O)c3ccc(C(=O)NCc4ccccc4OC)cc3nc2s1`, the survival was inactive: 73%.

In the case of `CCN(c1ccccc1)c1ccc2cc(S(=O)(=O)N3CCCC3)ccc2n1`, the survival was inactive: 95%.

For the compound `Cc1ccc(-n2nc(CO)c(C(=O)NCCCc3ccccc3)n2)cc1C`, the survival was inactive: 115%.

With `COc1ccccc1Cn1cc(C(=O)c2ccc(C)cc2)c(=O)c2cc(C)ccc21`, the survival is inactive: 112%.

Turning to `CCCn1c(SCC(=O)N2CCCc3ccccc32)nnc1C(C)C`, the survival is inactive: 98%.

As for `c1ccc(CN2CCC(N3CCN(C4CCCCC4)CC3)CC2)cc1`, the survival is inactive: 67%.

`COc1ccccc1CCNC(=O)C1CCN(c2nnc(-n3cccc3CNc3ccc(C)cc3)s2)CC1`: the survival is inactive: 80%.

Consider `COc1ccc(N2CCN(c3csc4ccc(Cl)cc4c3=O)CC2)cc1`, for which the survival was inactive: 90%.

As for `N/C(=N\c1nc2ccccc2o1)NC(=O)/C=C/c1ccco1`, the survival was inactive: 85%.

With `COc1ccc(Cl)cc1NC(=O)c1cn(C2CCCCC2)c(=O)c2c1c1ccccc1n2C`, the survival was inactive: 79%.

Regarding `CCOc1ccc(Nc2nc3cc(Cl)c(Cl)cc3nc2-n2nc(C)cc2C)cc1`, the survival was inactive: 87%.

Regarding `Cc1c(C(=O)N(Cc2ccc(N(C)C)cc2)CC2CCCO2)oc2ccc(Cl)cc12` (stereo unspecified), the survival is inactive: 72%.

As for `CC(C)C(=O)Nc1ccccc1OCc1cc(=O)n2ccccc2n1`, the survival is inactive: 115%.

As for `CCOc1ccc(NC(=O)C2CCCN(c3ccc(Sc4ccc(C)cc4)nn3)C2)cc1` (stereo unspecified), the survival is inactive: 90%.

`O=C(NC(=O)c1ccccc1)Nc1ccc(-c2cc(C(F)(F)F)nn2-c2ccccc2)cc1`: the survival was inactive: 83%.

For `COC(=O)C(CCSC)NC(=O)c1cc2c(n(-c3ccc(Cl)cc3)c1=O)CCCC2=O` (stereo unspecified), the survival is inactive: 73%.

Turning to `N#CCCn1c(=O)[nH]c(=O)n(CCC#N)c1=O`, the survival was inactive: 74%.
